In the supplement of paper PMC3334620:
The full ranking holds about 33,000 sequences; the median of “E-score (-0.5 to 0.5)” is about -0.054, and the highest 2% start at about 0.35. The list shows a part of the results.

Biological target: T1, Stb5 (UniProt P38699)
T1 sequence: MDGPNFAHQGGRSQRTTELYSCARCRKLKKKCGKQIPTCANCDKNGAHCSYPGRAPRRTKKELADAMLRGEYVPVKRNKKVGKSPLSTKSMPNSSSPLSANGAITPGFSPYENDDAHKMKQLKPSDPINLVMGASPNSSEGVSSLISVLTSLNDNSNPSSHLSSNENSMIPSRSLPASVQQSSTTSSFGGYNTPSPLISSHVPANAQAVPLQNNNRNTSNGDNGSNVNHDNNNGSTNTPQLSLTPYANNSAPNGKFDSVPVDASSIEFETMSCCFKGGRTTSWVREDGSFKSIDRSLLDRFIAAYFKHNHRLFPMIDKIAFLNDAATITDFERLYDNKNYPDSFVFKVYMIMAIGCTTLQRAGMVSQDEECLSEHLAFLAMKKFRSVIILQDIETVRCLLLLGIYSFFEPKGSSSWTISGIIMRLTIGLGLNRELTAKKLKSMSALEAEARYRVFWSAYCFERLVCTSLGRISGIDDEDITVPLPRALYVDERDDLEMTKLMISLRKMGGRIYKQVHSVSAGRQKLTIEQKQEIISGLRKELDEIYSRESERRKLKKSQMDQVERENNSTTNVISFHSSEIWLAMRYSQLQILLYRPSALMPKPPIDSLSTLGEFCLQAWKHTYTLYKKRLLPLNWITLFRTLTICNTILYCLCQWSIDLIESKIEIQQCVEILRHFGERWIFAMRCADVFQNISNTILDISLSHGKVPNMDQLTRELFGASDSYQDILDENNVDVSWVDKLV
Experiment: PBM E-score (8-mer binding enrichment) (E-score (-0.5 to 0.5)); higher = stronger / more preferred TF binding; most listed sequences are background and not binding sites
Conditions: protein concentration: 200 nM; construct: GST-full length
Summary of the method: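 Masliner-normalised scans of fluorescent anti-GST signal were the basis for scoring. That signal came from GST-tagged yeast transcription factors applied at about 100-200 nM to double-stranded universal all-10-mer Agilent arrays on fresh or once-stripped slides. Each ungapped eight-base word, pooled with its reverse complement, received an E-score from the Universal PBM Analysis Suite.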

Sequence	PBM E-score
ACTCGTCT	-0.225
AATTTCAC	-0.0465
AAGCACTC	-0.0364
GCGGAGCA	0.236
CGCATAGC	0.156
ACGAAGAT	-0.187
ACACTGTC	-0.186
ATCGTTAA	-0.0225
CTATTTTA	0.0471
CCTGGTAC	-0.0244
AGTGGTCC	-0.0888
GTAATGTA	-0.202
CCAACAAG	-0.31
CGTTACAG	-0.113
AGGGTTCA	-0.22
GTTACACA	-0.108
ATAATAGG	-0.0545
ATCATGTC	0.0278
ACTGTACT	-0.344
CAGAGGGG	-0.107
CTCTATTA	-0.0617
AAGGCTAG	-0.212
ACCCTGTA	-0.128
CGTTGGCC	0.0255
GTTTCTAA	0.0616

Sequence	PBM E-score
CAGTGCAA	-0.218
GTTTACTA	-0.0166
GGCGTTTA	0.278
TACACCCA	-0.0438
CAAATTTG	-0.0835
ACCAGTCA	0
ATAAATTA	0.0577
CACCATAC	-0.0843
GTTGACGA	-0.196
CAACTCTC	-0.219
CCAATCCC	-0.0254
AAGTTAAC	0.00531
ACTATCTC	0.0778
CGTATGTC	0.0973
CCTTGCGC	-0.0818
CCTACACG	-0.161
CCAAAGGG	-0.177
ACAGCAGA	-0.139
GGACATCC	0.148
TTAATGAA	-0.036
CTATCAAC	0.024
GCTTCCCA	-0.0491
AAAGCTTC	-0.21
ATATCGAT	-0.233
CTATGCTA	-0.0476

Sequence	PBM E-score
ATGTTGAC	0.0757
CAGGGGGA	-0.365
GAGTCTAC	-0.208
GTGAATAA	-0.158
AGGACCCT	-0.274
AGACACAA	-0.00012
CGTAAAAA	0.0566
ATGCTTTG	-0.138
ATAATTAT	-0.134
CTTGTGCC	0.0758
ATAAATGC	0.143
ACCTTTCT	-0.161
CCTCTACC	-0.103
ACAGAGGG	-0.171
ATCAACCG	0.0635
CCCCAGGC	-0.221
ATTGTATC	0.0561
CTCACGGA	0.0619
ACACTGCC	-0.0882
ATTGGGAC	-0.149
CGCACATC	0.0102
CTCTCGTC	-0.183
AAGGAACA	-0.11
AATGGCCG	0.286
ATATCGTG	0.063

Sequence	PBM E-score
GAAGTGCC	0.221
GGGATTAC	0.236
ATTCGGCC	0.215
GTCATCCA	-0.207
TATGCATA	-0.284
ACTTTCCA	-0.0496
CATTTAGA	0.0334
CTCAGAGA	-0.0435
TGGTTAAA	0.0684
AGTAACCG	0.0383
CGTTGGAA	-0.0823
AACATTGC	-0.0834
CCTCCCCA	-0.114
AACTCAGC	-0.032
CGTAGGGA	-0.00471
CAATGAAA	-0.197
ACCATTCC	-0.0654
ACGGACAG	0.00554
AAAGAACG	0.0118
CTTTGTAA	-0.067
GAGCCGGA	0.22
AGCAAGGG	-0.137
AACGTACC	-0.0776
ACGCGAGT	-0.034
AGATATAG	-0.13

Sequence	PBM E-score
AGGTCTAG	-0.166
CATAGCAG	-0.212
GGTCGACA	-0.00149
ACGAGCTC	-0.102
GATACCAC	0.071
TGTCTGAA	-0.107
GGGATACC	0.131
ATAGTGTA	-0.103
CACAAGAA	-0.127
AGGATGGG	-0.325
AAGCTTCT	-0.214
AGTTTTCA	-0.0807
AAGCAAAC	-0.16
AGATCAAC	-0.251
AGGTACCA	-0.143
CATACTAG	-0.0372
ATGTTGCG	0.0804
ATCTAAGC	-0.0851
CCTGTATC	-0.132
ATCCAACA	-0.115
GCCGAGTA	0.0862
CCGAAGCG	0.225
AAGGGAAA	-0.19
ACGAGGCC	-0.0957
ACTTCCAC	0.0682

Sequence	PBM E-score
GCTTTCAC	-0.0591
ATGGTGTG	-0.246
AACGGGGG	0.296
TGTCCTAA	-0.155
GAAGCTAC	-0.193
AAATACCA	-0.109
AAAGCAAT	-0.074
AACACAAC	-0.139
AAGGGACA	-0.192
TACGTATA	-0.0689
GGCTTACA	-0.00474
GGATGGCA	-0.0798
AGAGTATC	-0.0711
GGGGCGAA	0.0874
ACTGTGCG	-0.0441
ATTGTGTG	-0.205
ACCTCCGA	0.364
GCCCTCCA	-0.0409
CCATTACG	-0.174
ATCTACCC	0.0858
CACCCCCG	0.126
AGGTTTTG	-0.112
CCCACACG	0.0468
ACCGGTGA	0.319
ACAACTCT	-0.283

Sequence	PBM E-score
ACAACTGA	-0.152
ACGTGTCC	0.0914
AGTTATCC	-0.00738
TGCGGGAA	0.25
CTAGCTGA	-0.206
AGTAAGAA	-0.0858
AAGAGAAA	0.0634
GAAATTGA	0.0769
GCTCAACC	-0.154
CACCCCCA	-0.362
AAAGCACG	-0.255
CGAAAGGA	0.00285
GCATTCTA	-0.0166
AAAGCGAG	-0.108
AAGACCTG	-0.165
GCGTGGGA	0.00204
CCAAACAC	-0.0822
AACCGCTG	0.0244
AATACCAG	-0.007
GGGCCGGA	0.158
GGTGCAAA	0.0625
ACCAGACG	-0.148
